Source: the RNAGym collection of RNA variant scans (doi:10.1073/pnas.2313332121)
This sample is rich in variants without activity.

B1: TPR 5TU (parent)
chain: GGAUCUUCUCGAUCUAACAAAAAAGACAAAUCUGCCACAAAGCUUGAGAGCAUCUUCGGAUGCAGAGGCGGCAGCCUUCGGUGGCGCGAUAGCGCCAACGUUCUCAACUAUGACACGCAAAACGCGUGCUCCGUUGAAUGGAGUUUAUCAUG

Variants of: B1
Test: polymerase ribozyme fitness, log enrichment relative to wild type (log ratio); higher = more active; in vitro selection for triplet polymerase activity
Method in brief: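 Mutant libraries of each subunit of a heterodimeric triplet polymerase ribozyme were built by PCR and transcribed. Each library went through one round of in vitro selection in triplicate: annealing with biotinylated primer, partner subunit and triplets, frozen incubation at −7 °C, gel excision of extended constructs, streptavidin-bead capture and RT-PCR. Input and output libraries were Illumina-sequenced; only genotypes with ≥10 input reads and ≥1 read per output were kept. Fitness is log2(genotype enrichment/wild-type enrichment), using inverse-variance-weighted replicate averages.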

Polymerase ribozyme fitness (log ratio), -3.65:
A24C C85U

Polymerase ribozyme fitness (log ratio), -2.85:
A24G C116G

Polymerase ribozyme fitness (log ratio), -3.54:
A24G C54A

Polymerase ribozyme fitness (log ratio), ≤ -4.2:
A24C G34A C96G G117C U135G U139A U145A
A24G A47G G48A C75U G86A
A24G C38U A97C C131G
A24C A52C C76U U77A U78C C85G
A24G A29U C54U G83A A98G
A23U G92U A115G C149G
A24G C32A C38A U45A C57U A106U C118U
A24C A49U C96A
A24C A73C G86U C96A
A23U U61A A107U A115G
A24G A37U A115G U130C U135A A150U
A24C C63U G71A C105G G143C U151G
A23U U77G C79U C93U A121G G124A C125U
A24C C76U A91U
A23U G88U C95U C149A
A24C U53A A73G C85U G141A
A24C G83C A106C G112A
A24C C35U U53G
A24C A73G G83C G143U
A24C C35G G42U C43U C87A C131U
A23U U53G C93A
A24G A91U
A24C G68A C95A G100A
A24C A30C U127G
A23U U55A G58A C85U
A24C C38U G92A G126U C131A
A24C A26G A30U C38U U56A A66G G80U C105A G152U
A24C C43U C93G G141U
A24C A29U U55G G86A A106G G136C
A24C U45A G84U C85A A107U U144C
A24C C87U A89U U134A
A24G A49G C105U G117U
A24C C75U A113U G124U U144C
A24C C38U G42C
A24G C76U A89U G92A G141C
A24C C27A U56A G58A C72U A73U C87U
A24G A39U U55A A66G
A24C C36A C54A G81U A89C A91C C118U C125A
A24G A60U G62U A73U C95A A97G C99G A106U G126C
A24C C43G C54U A73G
A24G A97U G140U
A24C A28U U31A C93U C99G A138C
A24G A39G G92A U104C G112A C114U A115U A122U G124C
A24G A52U C85A G140A A142G
A24C U56A C79G G86U A119G C129G
A24C A73G C79G G81A U82G U102G U148C G152U
A24C C95A C96G U144C
A24G C38A A52G C85A
A24C A52U G80A A122C
A24C C54U G74A G88U U109G
A24G C27A A39G
A24G C35A G50A A110U C149A
A24C C27G A30G U31A G50C C57U A64G G68A C76G C96G
A24G C43G G59C G86A C87A A106G G136U
A24C G50C C93U
A24C A28G C43A G58U A73U G86U U148A
A23U U56A A91G
A24C G34A A60G C85G C103A A120U
A24C U53A C105G
A24G A49C A91U G94U C96U A120G G133C
A24G C69U C87G U134A
A24C A28U U33A U44A C54A U55A G86U G88U
A24C A47C U53A A66U G80A C93U
A24C A41C U56A G86A G88C U90G C125U
A24G C75A A113U
A24C A91C C95U
A24G C43G G100U U144G
A24C A39C G68C
A24C C35A C93A
A23U U56A G80A
A24C C87G A120U
A24C G34A G42U U61A A91G U151A
A24C C27A U55G
A24C C35U U45A G83U G128U G141A
A23U U31C C87G U104G
A23U U56A A73U G86A C93G C131G U139C
A24C A30U G68U C76A C87A C116G
A24C U53A G81C C95U G141A
A24C C118U G143C
A24C A49U C85G G88A C95A U104A U146A
A24C U53C A73U G80U G86U C103G C114U U130C C131G
